Assay results taken from patent publication US20210032313A1 (Daiichi Sankyo, published 2021).

What was measured:
[1] = molecular target: T1, human KLK14 (human, UniProt Q9P0G3 25-251); assay: cell-based or functional assay
T1 sequence: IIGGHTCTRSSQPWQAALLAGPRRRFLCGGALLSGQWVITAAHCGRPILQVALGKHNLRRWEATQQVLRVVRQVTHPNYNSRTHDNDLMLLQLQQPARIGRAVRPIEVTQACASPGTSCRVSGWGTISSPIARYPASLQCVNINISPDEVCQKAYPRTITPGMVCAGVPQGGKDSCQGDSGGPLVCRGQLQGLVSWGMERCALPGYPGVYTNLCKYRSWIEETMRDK

[2] = molecular target: T2, human KLK5 (human, UniProt Q9Y337 67-293); assay: cell-based or functional assay
T2 sequence: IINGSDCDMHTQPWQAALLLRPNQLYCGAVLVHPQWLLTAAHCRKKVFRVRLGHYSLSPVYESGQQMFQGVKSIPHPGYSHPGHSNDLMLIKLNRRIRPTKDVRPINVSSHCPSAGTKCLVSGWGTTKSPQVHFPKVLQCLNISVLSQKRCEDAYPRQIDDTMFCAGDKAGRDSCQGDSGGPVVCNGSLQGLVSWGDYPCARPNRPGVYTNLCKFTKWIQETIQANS

[3] = molecular target: T2, human KLK5; assay: inhibition of human KLK5 (10 nM) on Boc-Val-Pro-Arg-AMC (100 µM), Morrison equation
Experimental: The inhibitory activity of the KLK5 inhibitory peptide Fc fusions against human KLK5 was evaluated, and the inhibition constant Kᵢ was calculated. A substrate peptide Boc-Val-Pro-Arg-AMC (R&D Systems, Inc., ES011) was dissolved in DMSO to 10 mM and diluted with an assay buffer (50 mM Tris-HCl, 150 mM NaCl, pH 8.0) for use at a final concentration of 25 to 200 μM. 25 μL each of human KLK5 and the KLK5 inhibitory peptide Fc fusion diluted with the assay buffer were mixed, followed by a reaction at 37° C. for 20 minutes. Thereafter, 50 μL of a substrate diluted with the assay buffer was added thereto, and the fluorescence signal (excitation at 380 nm/emission at 460 nm) was measured using Enspire.
The degradation rate of the substrate peptide by each inhibitory peptide Fc fusion at each concentration was calculated, and the human KLK5 inhibitory activity of each inhibitory peptide Fc fusion was evaluated, with the degradation rate of the inhibitory peptide Fc fusion at a concentration of 0 nM taken as 100% (FIG. 102). Using GraphPad Prism (version 5.0; GraphPad Software Inc.), the maximum reaction rate Vₘₐₓ and the Michaelis constant Kₘ were calculated according to the Michaelis-Menten equation at an enzyme concentration of 10 nM. […] The average value of three independent experiments was used to calculate the Kᵢ value.

[4] = molecular target: T2, human KLK5; assay: SPR, BIAcore T200; Fc fusion captured by anti-human IgG (Fc), KLK5 as analyte; single cycle kinetics, 1:1 model
Experimental: In order to measure the binding affinity of a KLK5 inhibitory peptide Fc fusion prepared in (5-2), which will be described below, surface plasmon resonance analysis was conducted using BIAcore T 200 (GE healthcare).
The KLK5 inhibitory peptide Fc fusion was captured at a flow rate of 20 μL/min by Sensor Chip CM5 (GE healthcare) on which an anti-human IgG (Fc) antibody was immobilized to immobilize about 30 to 50 RU. Thereafter, KLK5, serially diluted 2-fold with HBS-EP (0.625 to 10 nM), was added thereto as an analyte at a flow rate of 30 μL/min. In the BIAcore T 200 Evaluation software (version 2.0), kon and koff were calculated by analysis using Single cycle kinetics in a simple one-to-one Langmuir binding model. The dissociation constant KD was calculated as a ratio of koff/kₒₙ. Further, the binding activity of KLK5 to multiple KLK5 inhibitory peptide Fc fusions was measured by regenerating Sensor Chip CM5 on which the anti-human IgG (Fc) antibody was immobilized using a Regeneration buffer attached to a Human Antibody Capture Kit (GE healthcare) and repeatedly capturing the KLK5 inhibitory peptide Fc fusion.

[5] = molecular target: T3, mouse KLK14 (mouse, UniProt Q8CGR5 24-250); assay: cell-based or functional assay
T3 sequence: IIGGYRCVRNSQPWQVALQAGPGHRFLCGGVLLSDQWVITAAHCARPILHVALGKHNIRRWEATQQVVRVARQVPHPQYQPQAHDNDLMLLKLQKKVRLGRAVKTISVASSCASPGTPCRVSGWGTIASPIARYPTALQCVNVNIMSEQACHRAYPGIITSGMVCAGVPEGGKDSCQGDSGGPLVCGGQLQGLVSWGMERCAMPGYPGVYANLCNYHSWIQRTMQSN

[6] = molecular target: mouse KLK7 (mouse, UniProt Q91VE3 26-249); assay: cell-based or functional assay
Sequence of UniProt Q91VE3 (Q91VE3 26-249): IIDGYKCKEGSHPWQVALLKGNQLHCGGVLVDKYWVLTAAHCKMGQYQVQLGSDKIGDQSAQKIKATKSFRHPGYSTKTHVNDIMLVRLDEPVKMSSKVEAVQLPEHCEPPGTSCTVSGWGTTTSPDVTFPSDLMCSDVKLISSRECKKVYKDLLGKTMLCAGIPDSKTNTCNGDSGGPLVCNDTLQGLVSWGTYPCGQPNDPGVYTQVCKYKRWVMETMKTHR

[7] = molecular target: T4, mouse KLK5 (mouse); assay: cell-based or functional assay
T4 chain: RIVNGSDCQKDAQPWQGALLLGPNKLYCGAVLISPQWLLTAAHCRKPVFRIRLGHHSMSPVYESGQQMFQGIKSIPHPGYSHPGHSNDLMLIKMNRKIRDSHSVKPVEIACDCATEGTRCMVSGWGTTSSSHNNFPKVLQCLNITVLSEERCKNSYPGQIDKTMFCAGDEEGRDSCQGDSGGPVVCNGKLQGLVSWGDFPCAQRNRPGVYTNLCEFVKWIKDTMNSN

IC50(nM) for hKLK14 [1]: 260 nM | IC50(nM) for hKLK5 [2]: 4.5 nM | Ki [3]: 0.36 nM | Kd [4]: 0.00748 nM | koff [4]: 1.68e-06 s⁻¹ | kon [4]: 225000 M⁻¹ s⁻¹ | IC50(nM) for mKLK14 [5]: > 1000 nM | IC50(nM) for mKLK7 [6]: > 1000 nM | IC50(nM) for mKLK5 [7]: 50 nM
B1: KLK5 inhibitory peptide Fc fusion D3-K51072-Fc (Fc fusion)
chain: DDDGPQFGLFSKYRTPNCQEDMTEYCARDFDPVCGSDMSTYANECTLCMKIREGGHNIKIIRNGPC[gap - human IgG1 Fc]
